Test results reported in patent publication US20160368957A1 (COVAGEN, published 2016).

Assays:
[1] = molecular target: T1, recombinant human IL-17A (human, UniProt Q16552 20-155, limits assumed, biotinylated with NHS-PEO4-biotin in the phage ELISA and in the SA-chip BIAcore runs; unmodified elsewhere); assay: cell-based or functional assay
[2] = molecular target: T1, recombinant human IL-17A; assay: SPR BIAcore 3000, biotinylated IL-17A on SA chip, binder injected
T1 sequence (Q16552 20-155 limits assumed): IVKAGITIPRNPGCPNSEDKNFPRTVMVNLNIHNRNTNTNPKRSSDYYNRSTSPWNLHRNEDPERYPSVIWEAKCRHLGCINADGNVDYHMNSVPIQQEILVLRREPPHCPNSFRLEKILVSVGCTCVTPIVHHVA

B1: clone E4 (designed binder)
chain: GVTLFVALYDYKAFWPGDISFHKGEKFQILRTSDGEWWVARSLTTGEEGYIPSNYVAPVDSIQ
notes: Fyn SH3-derived
IC50 of inhibition of IL-17A induced IL-6 production in NHDF cells (IL-17A 50 ng/ml) [1]: ~6 nM | Kd [2]: 31 nM
